# Laboratory results: PubChem BioAssay (Tox21)
# Where “and” joins values, the source holds several entries; their conditions need not be identical. Equal values may be shown once. Inconclusive results, whose numbers are uncertain, are shown with a selection of clear calls. A potency beside an inconclusive call is a rough fit, not a confirmed value. A structure can be active in one record and inactive in another. Calls of active or inactive are those of the source. Unless noted, calls come from the whole dose curve; as a rule, active = well fitted curve in the direction sought with a large enough effect in the repeat runs; inconclusive = weak or mixed curves; inactive = no such curve, though single readings can be large; an effect the other way counts as inactive or inconclusive.
# Experiments:
# [1] = qHTS assay to identify small molecule antagonists of the peroxisome proliferator-activated receptor delta (PPARd) signaling pathway - cell viability counter screen (AID 743213); conditions: PPARd-bla HEK293H viability, CellTiter-Glo luminescence, 17 h; viability change, negative = cytotoxic: at 62 µM (top of the series) unless noted; note: nearly all actives have a fitted effect of over 50% in size; for viability change, negative = cytotoxic: % is set by controls: 0 for no effect and ±100 for the full control effect
# Summary of the method: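 Viability counter-screen, qHTS format: PPARd-bla HEK293H, L165041 300 nM final, 17 h compound exposure at 37 C, CellTiter-Glo luminescence after 30 min RT.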
# [2] = molecular target: Bile acid receptor (Homo sapiens) (UniProt Q96RI1); test: qHTS assay to identify small molecule antagonists of the farnesoid-X-receptor (FXR) signaling pathway (AID 743217; active = well fitted inhibition curve with a large enough effect in the signal ratio in the repeat runs, not every such curve was filed as active; inconclusive = weak or mixed curves, or effect the other way; inactive = no such curve, though single readings can be large or run the other way; the % refers to the signal ratio); conditions: HEK293T FXR-UAS-bla, beta-lactamase ratio, CDCA-stimulated, 16 h; activity change, negative = inhibition: at 62.6 µM (top of the series) unless noted
# Chain of UniProt Q96RI1 (Q96RI1 whole entry, looked up): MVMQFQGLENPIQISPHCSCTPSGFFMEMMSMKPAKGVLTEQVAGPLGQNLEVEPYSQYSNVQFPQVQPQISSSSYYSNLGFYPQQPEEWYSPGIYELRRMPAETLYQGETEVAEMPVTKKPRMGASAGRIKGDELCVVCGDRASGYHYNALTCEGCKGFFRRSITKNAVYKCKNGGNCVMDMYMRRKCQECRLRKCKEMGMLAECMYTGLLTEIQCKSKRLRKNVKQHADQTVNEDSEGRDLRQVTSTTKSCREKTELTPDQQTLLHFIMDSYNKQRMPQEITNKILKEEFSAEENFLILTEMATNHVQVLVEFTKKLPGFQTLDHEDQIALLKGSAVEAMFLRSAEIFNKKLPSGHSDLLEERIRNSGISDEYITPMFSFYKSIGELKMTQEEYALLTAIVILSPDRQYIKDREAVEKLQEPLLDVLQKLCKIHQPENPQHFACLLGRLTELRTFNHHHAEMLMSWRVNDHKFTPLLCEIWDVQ
# Summary of the method: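 Beta-lactamase reporter under UAS control in HEK 293T cells; compound exposure 16 h at 37 °C in the presence of chenodeoxycholic acid (50 uM final); signal from B/G FRET substrate after 2 h at room temperature.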
# [3] = qHTS assay to identify small molecule agonists of the farnesoid-X-receptor (FXR) signaling pathway - cell viability counter screen (AID 743218); conditions: FXR-bla HEK293T viability, CellTiter-Glo luminescence, 16 h; viability change, negative = cytotoxic: at 62.6 µM (top of the series) unless noted; note: nearly all actives have a fitted effect of over 45% in size
# Summary of the method: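 In GeneBLAzer FXR-UAS-bla HEK 293T cells, compounds act for 16 h at 37 C. Cell viability is then scored in the reporter wells by CellTiter-Glo, 30 min at RT, luminescence.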
# [4] = qHTS assay to identify small molecule antagonists of the farnesoid-X-receptor (FXR) signaling pathway - cell viability counter screen (AID 743221; active = well fitted cell-killing curve with a large enough effect in the repeat runs, not every such curve was filed as active; inconclusive = weak or mixed curves, or effect the other way; inactive = no such curve, though single readings can be large or run the other way; note: nearly all actives have a fitted effect of over 50% in size); conditions: FXR-bla HEK293T viability, CellTiter-Glo luminescence, 16 h; activity change, negative = cytotoxicity: at 62.6 µM (top of the series)
# Summary of the method: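 FXR-UAS-bla HEK 293T cells were treated with test compounds plus chenodeoxycholic acid (50 uM final) for 16 h at 37 C. Cell viability in the same wells was then read as CellTiter-Glo luminescence after 30 min at room temperature.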
# [5] = molecular target: Vitamin D3 receptor (Homo sapiens) (UniProt P11473); test: qHTS assay to identify small molecule antagonists of the vitamin D receptor (VDR) signaling pathway (AID 743223; active = well fitted inhibition curve with a large enough effect in the signal ratio in the repeat runs, not every such curve was filed as active; inconclusive = weak or mixed curves, or effect the other way; inactive = no such curve, though single readings can be large or run the other way; the % refers to the signal ratio; for activity change, negative = inhibition: % is set by controls: 0 for no effect and ±100 for the full control effect); conditions: VDR-UAS-bla HEK293T, beta-lactamase FRET ratio, 16 h; activity change, negative = inhibition: at 61 µM (top of the series) unless noted
# Chain of UniProt P11473 (P11473 whole entry, looked up): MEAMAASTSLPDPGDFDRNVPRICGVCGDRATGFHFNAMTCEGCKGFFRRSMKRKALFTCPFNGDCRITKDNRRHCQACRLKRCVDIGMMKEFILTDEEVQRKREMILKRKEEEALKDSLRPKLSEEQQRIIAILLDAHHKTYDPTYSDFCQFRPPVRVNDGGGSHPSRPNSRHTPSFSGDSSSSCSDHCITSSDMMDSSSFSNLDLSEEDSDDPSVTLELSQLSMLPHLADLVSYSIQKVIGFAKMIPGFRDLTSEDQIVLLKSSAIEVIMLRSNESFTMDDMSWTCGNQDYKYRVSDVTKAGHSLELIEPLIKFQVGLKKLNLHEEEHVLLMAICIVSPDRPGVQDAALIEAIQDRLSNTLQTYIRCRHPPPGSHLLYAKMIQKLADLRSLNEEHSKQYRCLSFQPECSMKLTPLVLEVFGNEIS
# Summary of the method: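 VDR-bla cells were plated, incubated 4 h at 37C, then given compound and 1alpha,25-dihydroxyvitamin D3 (3 nM final). After 16 h at 37C, LiveBLAzer B/G FRET substrate was added for 2 h at room temperature and fluorescence read.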
# [6] = qHTS assay to identify small molecule antagonists of the vitamin D receptor (VDR) signaling pathway - cell viability counter screen (AID 743225); conditions: VDR-bla HEK293T viability, CellTiter-Glo luminescence, 16 h; viability change, negative = cytotoxic: at 61 µM (top of the series) unless noted; note: nearly all actives have a fitted effect of over 50% in size
# Summary of the method: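 VDR-bla HEK 293T cells, 4 h pre-incubation at 37C, then compound plus 1-alpha,25-dihydroxyvitamin D3 (3 nM final) for 16 h. After the beta-lactamase FRET read, CellTiter-Glo was added to the same wells; luminescence after 30 min at room temperature.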
# [7] = qHTS assay to identify small molecule antagonists of the retinoid-related orphan receptor gamma (ROR-gamma) signaling pathway - cell viability counter screen (AID 1159520); note: nearly all actives have a fitted effect of over 50% in size
# Summary of the method: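 Tet-on ROR gamma CHO cells were given compounds for 2 hr, then doxycycline hyclate at 1 uM final, and incubated 16 hr at 37 C. Viability was measured as ATP content by CellTiter-Glo luminescence.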
# [8] = qHTS assay to identify small molecule agonists of the AP-1 signaling pathway - cell viability counter screen (AID 1159525; calls by dose curve; note: nearly all actives have a fitted effect of over 55% in size)
# Summary of the method: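 AP-1-bla ME-180 cells in Opti-MEM with 0.5% dialyzed FBS, compound exposure 5 h at 37 C in 15-point titration. Viability read in the same wells as ATP content by CellTiter-Glo luminescence, normalised to tetra-n-octylammonium bromide and DMSO controls.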
# [9] = qHTS assay to identify small molecule agonists of the AP-1 signaling pathway (AID 1159526; calls by dose curve; for activation: % is set by controls: 0 for no effect and ±100 for the full control effect); conditions: ME-180 (cervical carcinoma) AP-1-bla reporter, beta-lactamase FRET ratio, 5 h; activation: at 76.8 µM (top of the series) unless noted
# [10] = molecular target: Retinoic acid receptor RXR-alpha (Homo sapiens) (UniProt P19793); test: qHTS assay to identify small molecule agonists of the RXR signaling pathway (AID 1159527; calls by dose curve; note: nearly all actives have a fitted effect of over 35% in size; for activation: % is set by controls: 0 for no effect and ±100 for the full control effect); conditions: HEK293T RXRa-UAS-bla, beta-lactamase ratio, 16 h; activation: at 76.8 µM (top of the series) unless noted
# Chain of UniProt P19793 (P19793 whole entry, looked up): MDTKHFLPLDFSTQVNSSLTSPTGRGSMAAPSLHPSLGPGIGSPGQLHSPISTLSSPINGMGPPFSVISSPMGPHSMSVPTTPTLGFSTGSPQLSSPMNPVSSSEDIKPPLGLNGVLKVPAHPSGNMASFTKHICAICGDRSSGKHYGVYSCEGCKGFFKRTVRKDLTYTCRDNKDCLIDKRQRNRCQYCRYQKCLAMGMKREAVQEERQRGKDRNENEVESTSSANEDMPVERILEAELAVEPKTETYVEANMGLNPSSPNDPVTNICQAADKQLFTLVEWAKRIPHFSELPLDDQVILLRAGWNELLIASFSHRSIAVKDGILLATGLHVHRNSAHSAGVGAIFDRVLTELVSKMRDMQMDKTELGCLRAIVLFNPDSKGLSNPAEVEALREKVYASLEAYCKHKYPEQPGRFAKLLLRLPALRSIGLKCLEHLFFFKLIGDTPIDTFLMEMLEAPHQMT
# Summary of the method: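 GeneBLAzer RXR-alpha-UAS-bla HEK 293T cells in medium with 2% charcoal-stripped FBS, pre-incubated 5 hr at 37 C, then exposed to compounds 16 hr. Beta-lactamase reporter read by FRET substrate, 2 hr room temperature, 460/530 nm emission.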
# [11] = qHTS assay to identify small molecule agonists of the RXR signaling pathway - cell viability counter screen (AID 1159529); note: nearly all actives have a fitted effect of over 50% in size
# Summary of the method: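 RXR-alpha-UAS-bla HEK 293T cells in medium with 2% charcoal-stripped FBS were preincubated 5 hr, then exposed to compounds for 16 hr at 37 C. Viability was read as CellTiter-Glo luminescence after 30 min at room temperature.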
# [12] = qHTS assay to identify small molecule antagonists of the retinoid acid receptor (RAR) signaling pathway - cell viability counter screen (AID 1159551); note: nearly all actives have a fitted effect of over 35% in size
# Summary of the method: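 Following overnight attachment, C3RL4 reporter cells received DMSO-dissolved compounds and then retinol (1 uM final). Six hours later at 37 C, ATP content was measured by CellTiter-Glo luminescence.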
# [13] = qHTS assay to identify small molecule agonists of the vitamin D receptor (VDR) signaling pathway - cell viability counter screen (AID 743224); conditions: VDR-bla HEK293T viability, CellTiter-Glo luminescence, 16 h; activity change, negative = cytotoxicity: at 62.6 µM (top of the series); note: nearly all actives have a fitted effect of over 50% in size
# Summary of the method: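 VDR-bla cell line, quantitative HTS format; 16 h compound incubation (37C, 5% CO2); ATP-based CellTiter-Glo luminescence measured in the reporter assay wells.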
# [14] = molecular target: Nuclear receptor ROR-gamma (Homo sapiens) (UniProt P51449); test: qHTS assay to identify small molecule antagonists of the retinoid-related orphan receptor gamma (ROR-gamma) signaling pathway (AID 1159521; note: nearly all actives have a fitted effect of over 50% in size)
# Summary of the method: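 Tet-on RORγ CHO cells carrying a ROR response element–luciferase reporter were pretreated with compounds for 2 h, then induced with 1 uM (final) doxycycline hyclate for 16 h at 37 C. Antagonism was read as decreased ONE-Glo luminescence.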
# [15] = molecular target: Peroxisome proliferator-activated receptor delta (Homo sapiens) (UniProt Q03181); test: qHTS assay to identify small molecule antagonists of the peroxisome proliferator-activated receptor delta (PPARd) signaling pathway (AID 743215; active = well fitted inhibition curve with a large enough effect in the signal ratio in the repeat runs, not every such curve was filed as active; inconclusive = weak or mixed curves, or effect the other way; inactive = no such curve, though single readings can be large or run the other way; the % refers to the signal ratio;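 note: cells stimulated with agonist L165041 at 300 nM final during compound exposure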); conditions: HEK293H PPARd-UAS-bla, beta-lactamase FRET ratio, antagonist, 17 h; ratio activity, negative = inhibition: at 62 µM (top of the series) unless noted
# Chain of UniProt Q03181 (Q03181 whole entry, looked up): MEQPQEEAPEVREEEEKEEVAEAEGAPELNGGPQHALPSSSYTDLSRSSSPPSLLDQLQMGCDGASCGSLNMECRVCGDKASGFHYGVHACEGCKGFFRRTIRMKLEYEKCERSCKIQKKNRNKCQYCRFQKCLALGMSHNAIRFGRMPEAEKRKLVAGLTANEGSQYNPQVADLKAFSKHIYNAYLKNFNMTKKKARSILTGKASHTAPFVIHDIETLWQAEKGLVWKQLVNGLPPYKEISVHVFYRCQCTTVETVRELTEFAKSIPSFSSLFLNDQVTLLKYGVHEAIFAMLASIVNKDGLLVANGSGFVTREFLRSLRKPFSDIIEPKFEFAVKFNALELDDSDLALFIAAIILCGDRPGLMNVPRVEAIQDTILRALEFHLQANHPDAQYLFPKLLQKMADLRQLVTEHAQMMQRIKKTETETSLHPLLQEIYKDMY
# Summary of the method: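 Antagonist-mode beta-lactamase reporter screen: HEK293H cells with UAS-bla under PPARd control, stimulated by 300 nM L165041 (final) alongside test compound for 17 h at 37 C, then FRET fluorescence after 2 h substrate incubation.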
# Potency is the fitted concentration of half-maximal effect; tags give direction and shape of the fitted curve or compound fluorescence and quenching.
compound,measurement,setting,value
CC1C2CC(CC2C2CCCC(O)C2)C1(C)C (stereo not given),Potency,[1],"inconclusive: 54.9 µM [cytotoxic, single point]"
same,Potency,[2],"inconclusive: 54.9 µM [inhibitor, single point]"
same,Potency,[3],"inconclusive: 54.9 µM [cytotoxic, single point]"
same,Potency,[4],"inconclusive: 54.9 µM [falling, single point]"
same,"activity change, negative = inhibition",[5],inconclusive: -50.2%
same,Potency,[6],"inconclusive: 54.9 µM [cytotoxic, single point]"
same,Potency,[7],"inconclusive: 68.6 µM [cytotoxic, partial curve, poor fit]"
same,Potency,[8],"inconclusive: 54.9 µM [cytotoxic, single point]"
same,Potency,[9],"inconclusive: 49 µM [cytotoxic, partial curve]"
same,Potency,[10],"inconclusive: 61.6 µM [cytotoxic, partial curve, poor fit]"
same,Potency,[11],active: 38.9 µM
same,Potency,[12],"inconclusive: 77 µM [cytotoxic, single point]"
Cc1ccc(S(=O)(=O)C(I)I)cc1,Potency,[7],active: 17.2 µM
same,Potency,[8],active: 17.4 µM
same,Potency,[9],"inconclusive: 21.9 µM [cytotoxic, full curve]"
same,Potency,[10],inconclusive: 15.5 µM [partial curve]
same,Potency,[12],active: 43.3 µM
CCCCCCCCCCCC[N+](C)(C)CCCS(=O)(=O)[O-],"viability change, negative = cytotoxic",[1],inconclusive: -43% [cytotoxic] [at 80.4 µM]
same,"activity change, negative = inhibition",[5],inconclusive: 15.4% [at 78.8 µM]
same,Potency,[13],"inconclusive: 55.6 µM [cytotoxic, single point]"
same,Potency,[7],"inconclusive: 0.552 µM [cytotoxic, single point]"
same,Potency,[9],inactive
same,activation,[10],inconclusive: -12.7%
same,Potency,[11],inactive
same,Potency,[12],inactive
O=Cc1c(Cl)cccc1Cl,Potency,[4],inactive
same,Potency,[7],"inconclusive: 63.3 µM [cytotoxic, single point]"
same,Potency,[14],inconclusive: 56.4 µM [inhibitor]
Oc1ccc2ccccc2c1,Potency,[1],inactive and active: 3.89 µM
same,Potency,[3],"inconclusive: 25.1 µM [rising, single point]"
same,Potency,[6],"inconclusive: 5.63 µM [rising, full curve, poor fit]"
same,Potency,[7],"inconclusive: 7.88 µM [cytotoxic, partial curve, poor fit] and inconclusive: 68.6 µM [cytotoxic, partial curve, poor fit]"
same,Potency,[9],inconclusive: 44.7 µM
same,activation,[10],inconclusive: -37.1%
CCCCCC(C)OC(=O)COc1ccc(Cl)c2cccnc12 (stereo not given),Potency,[1],inconclusive: 49 µM [cytotoxic]
same,Potency,[15],inconclusive: 54.9 µM
same,Potency,[2],"inconclusive: 61.6 µM [inhibitor, single point]"
same,Potency,[5],inactive
same,Potency,[13],inconclusive: 54.9 µM [cytotoxic]
same,Potency,[7],"inconclusive: 54.5 µM [cytotoxic, partial curve, poor fit]"
same,Potency,[9],"inconclusive: 34.7 µM [falling, partial curve]"
same,activation,[10],inconclusive: -32.7%
same,Potency,[11],active: 11 µM
CC1=CC(=O)CC(C)(C)C1,Potency,[5],inactive
same,Potency,[7],inactive
same,Potency,[8],active: 25.3 µM
same,Potency,[9],"inconclusive: 14.2 µM [falling, full curve]"
same,Potency,[10],inconclusive: 4 µM
same,Potency,[12],"inconclusive: 39.7 µM [rising, partial curve]"
O=C(c1ccc(O)cc1)c1ccc(Cl)cc1,Potency,[5],"inconclusive: 17.8 µM [activator, partial curve, poor fit]"
same,Potency,[7],"inconclusive: 62.4 µM [cytotoxic, partial curve, poor fit]"
same,Potency,[8],inactive
same,activation,[10],inconclusive: -26%
same,Potency,[11],inactive
OCCN(CCO)c1cccc(Cl)c1,Potency,[1],inactive
same,"ratio activity, negative = inhibition",[15],inconclusive: 1.57%
same,Potency,[5],"inconclusive: 8.71 µM [fluorescent, partial curve, poor fit]"
same,Potency,[7],inactive
same,Potency,[9],inactive
same,Potency,[10],inactive
O=C1C(c2[nH]c3ccc(S(=O)(=O)O)cc3c2O)=Nc2ccc(S(=O)(=O)O)cc21,Potency,[15],inactive
same,Potency,[7],"inconclusive: 27.3 µM [cytotoxic, partial curve]"
same,Potency,[9],inactive
same,activation,[10],inconclusive: -20.1%
same,Potency,[12],"inconclusive: 61.1 µM [cytotoxic, partial curve]"
CCN(CC)c1ccc2c(c1)Oc1cc(N(CC)CC)ccc1C21OC(=O)c2ccccc21,Potency,[7],"inconclusive: 7.5 µM [cytotoxic, partial curve]"
same,Potency,[9],"inconclusive: 21.3 µM [activator, partial curve]"
same,Potency,[10],"inconclusive: 8.49 µM [rising, full curve, poor fit]"
same,Potency,[11],"inconclusive: 10.7 µM [cytotoxic, full curve]"
same,Potency,[12],active: 11.9 µM
